The shares of active, inactive and inconclusive entries below differ from those in the screen. For part of these data: Where the call is inconclusive, the potency comes from a doubtful curve fit. For part of these data: A note “side channel” means that the fit belongs to a control or component signal, not to the main read-out. Activity calls are given as the source filed them. Unless noted, the call rests on the fitted dose curve.
Legend:
[1] = Cell Viability - LYMP2-022 (AID 987; active means well fitted curve in the direction sought with a large enough effect; inconclusive means small, poorly fitted or top-dose-only effect, or another doubt; inactive means no such curve, though single readings can be large; an effect the other way counts as inactive or inconclusive; further: potency means the concentration at half of the fitted maximal effect; nearly all actives have a fitted effect of over 55% in size); conditions: LYMP2-022 lymphoblastoid cell viability; series mostly up to 92.2 µM
In short: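 In this qHTS cytotoxicity screen, compound titrations were incubated 24 hr at 37 C with human lymphoblastoid cells in complete medium. Luciferase-based ATP luminescence provided the viability signal.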

[2] = Cell Viability - LYMP2-024 (AID 988; active means well fitted curve in the direction sought with a large enough effect; inconclusive means small, poorly fitted or top-dose-only effect, or another doubt; inactive means no such curve, though single readings can be large; an effect the other way counts as inactive or inconclusive; further: potency means the concentration at half of the fitted maximal effect; nearly all actives have a fitted effect of over 60% in size); conditions: LYMP2-024 lymphoblastoid cell viability; activity change, negative = cytotoxicity: at 92.2 µM (top of the series)
In short: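 Cells at 2500 per well received compound for 24 hr after a 5 hr settling period. Viability was scored by CellTiter-Glo luminescence, with AC50 from Hill fits.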

[3] = Cell Viability - LYMP2-026 (AID 989; active means well fitted curve in the direction sought with a large enough effect; inconclusive means small, poorly fitted or top-dose-only effect, or another doubt; inactive means no such curve, though single readings can be large; an effect the other way counts as inactive or inconclusive;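 further: potency means the concentration at half of the fitted maximal effect; cells exposed to compound for 24 h at 37 °C; nearly all actives have a fitted effect of over 50% in size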); conditions: LYMP2-026 lymphoblastoid cell viability, qHTS; series mostly up to 92.2 µM
In short: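 Acute toxicity screen in complete culture medium, with 24 hr compound exposure at 37 C. Viability read as cellular ATP via luciferase reaction, with tetraoctylammonium bromide (6.4pM to 92 uM) as positive control.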

[4] = Cell Viability - LYMP1-002 - Assay at 24 hr (AID 993; active means well fitted curve in the direction sought with a large enough effect; inconclusive means small, poorly fitted or top-dose-only effect, or another doubt; inactive means no such curve, though single readings can be large; an effect the other way counts as inactive or inconclusive; further: potency means the concentration at half of the fitted maximal effect); conditions: LYMP1-002 lymphoblastoid cells viability; series mostly up to 92.2 µM
In short: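 Viability was judged from intracellular ATP using a luciferase read-out, following a 24-hour compound incubation at 37 C of lymphoblastoid cells seeded at 2500 per well. Concentration-response data were fitted to the Hill equation for AC50.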

[5] = Cell Viability - LYMP1-002 - Assay at 40 hr (AID 994; active means well fitted curve in the direction sought with a large enough effect; inconclusive means small, poorly fitted or top-dose-only effect, or another doubt; inactive means no such curve, though single readings can be large; an effect the other way counts as inactive or inconclusive; further: potency means the concentration at half of the fitted maximal effect; nearly all actives have a fitted effect of over 60% in size); conditions: LYMP1-002 lymphoblastoid cell viability; series mostly up to 92.2 µM
In short: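 Concentration-dependent ATP loss after 40 hr treatment at 37 C defined toxicity; AC50 values were obtained by fitting the standard Hill equation.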

[6] = target: Estrogen receptor (Homo sapiens) (UniProt P03372); assay: qHTS assay for small molecule antagonists of estrogen receptor alpha signaling (AID 588513; active means well fitted curve in the direction sought with a large enough effect in the signal ratio, with a control signal flat, not every such curve was filed as active; inconclusive means small, poorly fitted or top-dose-only effect, or effect the other way, or a change in a side signal; inactive means no such curve, though single readings can be large or run the other way; the % refers to the signal ratio; further: potency means the concentration at half of the fitted maximal effect); conditions: ER-alpha-UAS-bla HEK293, beta-lactamase ratio, antagonist mode; activity, negative = inhibition: at 76.9 µM (top of the series) unless noted
UniProt P03372, sequence (P03372 whole entry, looked up): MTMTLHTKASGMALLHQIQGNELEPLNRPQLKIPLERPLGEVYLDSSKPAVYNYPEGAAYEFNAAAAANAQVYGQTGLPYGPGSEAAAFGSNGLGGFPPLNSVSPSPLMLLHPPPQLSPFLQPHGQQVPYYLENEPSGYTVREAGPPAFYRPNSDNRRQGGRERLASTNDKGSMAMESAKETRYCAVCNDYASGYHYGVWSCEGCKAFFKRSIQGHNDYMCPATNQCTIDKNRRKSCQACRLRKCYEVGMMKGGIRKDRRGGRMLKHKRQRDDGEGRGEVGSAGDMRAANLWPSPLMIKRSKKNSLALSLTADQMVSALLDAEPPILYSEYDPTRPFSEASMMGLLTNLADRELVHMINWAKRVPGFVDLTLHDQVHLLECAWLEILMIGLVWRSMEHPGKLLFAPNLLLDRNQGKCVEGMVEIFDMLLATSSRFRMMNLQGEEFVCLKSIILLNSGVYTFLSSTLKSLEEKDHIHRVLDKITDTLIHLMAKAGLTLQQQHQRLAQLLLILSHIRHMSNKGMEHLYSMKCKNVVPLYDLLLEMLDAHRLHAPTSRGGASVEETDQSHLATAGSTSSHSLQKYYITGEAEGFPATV
In short: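 Cells were plated at 5000/well and incubated 4 h at 37 C. Compounds were added as 1:2 dilution series, duplicates. 17-beta-estradiol (0.5nM final) was added for 18 h before CCF4 detection.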

[7] = target: Estrogen receptor (Homo sapiens) (UniProt P03372); assay: qHTS assay for small molecule agonists of estrogen receptor alpha signaling (AID 588514); conditions: ER-alpha-UAS-bla HEK293, beta-lactamase ratio, 18 h; activation: at 76.8 µM (top of the series), percent of full estradiol response, vehicle zero; further: potency means the concentration at half of the fitted maximal effect; nearly all actives have a fitted effect of over 70% in size
In short: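 Fluorescence from CCF4 cleavage reports ER-alpha-driven beta-lactamase expression in HEK 293 cells treated 18 hrs at 37 C. Data normalized to 17-beta-estradiol (20 nM) and DMSO, fitted to Hill equation.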

[8] = target: Androgen receptor (Homo sapiens) (UniProt P10275); assay: qHTS assay for small molecule agonists of androgen receptor signaling (AID 588515; active means well fitted curve in the direction sought with a large enough effect in the signal ratio, with a control signal flat; inconclusive means small, poorly fitted or top-dose-only effect, or effect the other way, or a change in a side signal; inactive means no such curve, though single readings can be large or run the other way; the % refers to the signal ratio; further: on the % scale 0 is the no-effect control and ±100 the full control effect); conditions: AR-UAS-bla HEK293, beta-lactamase ratio, agonist 16 h; activation: hits give high values
UniProt P10275, sequence (P10275 whole entry, looked up): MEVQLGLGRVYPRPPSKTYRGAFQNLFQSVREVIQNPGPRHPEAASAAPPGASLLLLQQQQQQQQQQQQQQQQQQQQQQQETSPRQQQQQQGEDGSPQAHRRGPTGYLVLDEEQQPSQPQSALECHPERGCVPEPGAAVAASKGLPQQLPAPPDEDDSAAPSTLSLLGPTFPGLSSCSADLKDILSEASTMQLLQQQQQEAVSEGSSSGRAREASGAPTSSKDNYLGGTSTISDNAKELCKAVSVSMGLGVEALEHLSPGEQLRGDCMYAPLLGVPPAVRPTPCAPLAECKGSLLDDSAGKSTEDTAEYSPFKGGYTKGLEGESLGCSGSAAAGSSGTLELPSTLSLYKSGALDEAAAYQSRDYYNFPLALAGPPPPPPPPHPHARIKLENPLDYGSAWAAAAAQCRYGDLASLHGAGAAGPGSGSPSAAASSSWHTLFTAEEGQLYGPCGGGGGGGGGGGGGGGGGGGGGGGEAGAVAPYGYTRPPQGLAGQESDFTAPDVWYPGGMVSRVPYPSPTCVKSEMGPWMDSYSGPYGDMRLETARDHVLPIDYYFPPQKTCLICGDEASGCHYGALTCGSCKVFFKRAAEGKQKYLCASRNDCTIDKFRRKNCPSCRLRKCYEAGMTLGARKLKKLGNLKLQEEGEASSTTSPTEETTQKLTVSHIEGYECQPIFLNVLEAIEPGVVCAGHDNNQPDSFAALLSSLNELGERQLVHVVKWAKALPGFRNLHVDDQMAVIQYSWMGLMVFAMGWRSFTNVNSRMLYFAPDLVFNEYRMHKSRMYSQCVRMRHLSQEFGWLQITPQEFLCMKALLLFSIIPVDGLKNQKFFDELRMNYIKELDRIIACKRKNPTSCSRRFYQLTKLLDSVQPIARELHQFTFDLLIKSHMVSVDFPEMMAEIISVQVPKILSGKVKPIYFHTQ
In short: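 Stimulation of an AR-responsive β-lactamase reporter in GripTite HEK293 cells was measured after 16 h compound exposure at 37 °C, via CCF4 fluorescence after 2 h RT. EC50 from Hill fits, normalized to R1881 at 30 nM.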

[9] = target: Bile acid receptor (Homo sapiens) (UniProt Q96RI1); assay: qHTS assay for small molecule antagonists of farnesoid X receptor signaling (AID 588526); conditions: HEK293T FXR-UAS-bla, beta-lactamase ratio, antagonist mode; activity change, negative = inhibition: at 76.7 µM (top of the series); further: potency means the concentration at half of the fitted maximal effect
In short: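 Beta-lactamase reporter antagonist mode: HEK293T FXR-UAS-bla cells, titrated compound, CDCA stimulation, 16 h 37 C, CCF4 dye 2 h RT. Data normalized to CDCA 50 uM and DMSO; Hill-fit IC50.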

[10] = target: Bile acid receptor (Homo sapiens) (UniProt Q96RI1); assay: qHTS assay for small molecule agonists of farnesoid X receptor signaling (AID 588527); conditions: HEK293T FXR-UAS-bla, beta-lactamase ratio, 16 h; activation: hits give high values; further: potency means the concentration at half of the fitted maximal effect
In short: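 Read-out: beta-lactamase reporter fluorescence with CCF4 substrate in GeneBLAzer FXR-UAS-bla HEK293T cells, after 16 h compound exposure at 37 C. Response scaled between DMSO basal (0%) and chenodeoxycholic acid at 100 uM (100%).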

[11] = target: Glucocorticoid receptor (Homo sapiens) (UniProt P04150); assay: qHTS assay for small molecule antagonists of glucocorticoid receptor signaling (AID 588533; active means well fitted inhibition curve with a large enough effect in the signal ratio, with a control signal flat, not every such curve was filed as active; inconclusive means small, poorly fitted or top-dose-only effect, or effect the other way, or a change in a side signal; the % refers to the signal ratio;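 further: cells stimulated with 2 nM dexamethasone as agonist; on the % scale 0 is the no-effect control and ±100 the full control effect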); conditions: HeLa MMTV-bla, GRE beta-lactamase ratio, antagonist mode, 18 h; activity change, negative = inhibition: at 76.8 µM (top of the series)
[12] = target: Peroxisome proliferator-activated receptor delta (Homo sapiens) (UniProt Q03181); assay: qHTS assay for small molecule antagonists of peroxisome proliferator-activated receptor delta signaling (AID 588535; active means well fitted inhibition curve with a large enough effect in the signal ratio, with a control signal flat, not every such curve was filed as active; inconclusive means small, poorly fitted or top-dose-only effect, or effect the other way, or a change in a side signal; inactive means no such curve, though single readings can be large or run the other way; the % refers to the signal ratio; further: potency means the concentration at half of the fitted maximal effect); conditions: HEK293T PPARd-UAS-bla, beta-lactamase FRET ratio, 18 h; activity change, negative = inhibition: at 76.7 µM (top of the series)
UniProt Q03181, sequence (Q03181 whole entry, looked up): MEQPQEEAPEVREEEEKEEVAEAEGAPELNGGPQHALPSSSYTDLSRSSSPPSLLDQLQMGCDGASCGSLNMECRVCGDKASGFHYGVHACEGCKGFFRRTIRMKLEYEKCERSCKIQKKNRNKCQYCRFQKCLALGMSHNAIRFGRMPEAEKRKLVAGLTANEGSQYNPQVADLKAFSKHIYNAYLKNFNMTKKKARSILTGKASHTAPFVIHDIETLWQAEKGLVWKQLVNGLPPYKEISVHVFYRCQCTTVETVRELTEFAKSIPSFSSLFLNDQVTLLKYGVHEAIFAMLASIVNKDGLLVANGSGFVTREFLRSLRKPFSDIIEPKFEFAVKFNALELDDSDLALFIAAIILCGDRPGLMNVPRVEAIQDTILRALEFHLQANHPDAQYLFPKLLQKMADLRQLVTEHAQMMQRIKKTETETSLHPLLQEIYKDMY
In short: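 Antagonist-mode qHTS using GeneBLAzer PPAR-delta-UAS-bla HEK293T cells; compound exposure 18 hrs at 37 C over a titration. Ratiometric CCF4 fluorescence at 460/530 nm; concentration-response points fitted to the Hill equation.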

[13] = target: Peroxisome proliferator-activated receptor gamma (Homo sapiens) (UniProt P37231); assay: qHTS assay for small molecule agonists of peroxisome proliferator-activated receptor gamma signaling (AID 588536; active means well fitted curve in the direction sought with a large enough effect in the signal ratio, with a control signal flat, not every such curve was filed as active; inconclusive means small, poorly fitted or top-dose-only effect, or effect the other way, or a change in a side signal; inactive means no such curve, though single readings can be large or run the other way; the % refers to the signal ratio; further: potency means the concentration at half of the fitted maximal effect); conditions: HEK293 PPARg-UAS-bla, beta-lactamase ratio, 16 h; activation: at 76.7 µM (top of the series), percent of rosiglitazone response, DMSO as zero
In short: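 Beta-lactamase reporter read-out: CCF4 fluorescence (ex 405, em 460/530 nm) after 2 h at RT. HEK293 GeneBLAzer cells were treated for 16 h at 37 C. Hill fits gave EC50 and efficacy versus 2 uM rosiglitazone (100%) and DMSO (0%).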

[14] = target: Peroxisome proliferator-activated receptor gamma (Homo sapiens) (UniProt P37231); assay: qHTS assay for small molecule antagonists of peroxisome proliferator-activated receptor gamma signaling (AID 588537; active means well fitted inhibition curve with a large enough effect in the signal ratio, with a control signal flat, not every such curve was filed as active; inconclusive means small, poorly fitted or top-dose-only effect, or effect the other way, or a change in a side signal; the % refers to the signal ratio;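 further: reporter cells co-stimulated with 50 nM rosiglitazone agonist during compound treatment; % of control where 0% means no effect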); conditions: HEK293 PPARg-UAS-bla, beta-lactamase ratio, antagonist mode; activity, negative = inhibition: at 76.8 µM (top of the series)
In short: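 Cell-based beta-lactamase assay; GW9662 served as the antagonist control. Stimulation used rosiglitazone, final 50 nM, 16 h, 37 C.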

[15] = target: Vitamin D3 receptor (Homo sapiens) (UniProt P11473); assay: qHTS assay for small molecule antagonists of vitamin D receptor signaling (AID 588541); conditions: HEK293T VDR-UAS-bla, beta-lactamase ratio, antagonist mode; activity change, negative = inhibition: at 76.7 µM (top of the series);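 further: receptor activated by calcitriol during compound treatment; on the % scale 0 is the no-effect control and ±100 the full control effect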
[16] = target: Vitamin D3 receptor (Homo sapiens) (UniProt P11473); assay: qHTS assay for small molecule agonists of vitamin D receptor signaling (AID 588543); conditions: HEK293T VDR-UAS-bla, beta-lactamase ratio, 16 h; activation: at 76.8 µM (top of the series); further: potency means the concentration at half of the fitted maximal effect
In short: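 qHTS in agonist mode: compound titrations stimulate a VDR-driven β-lactamase reporter in HEK293T cells over 16 h at 37 °C. Response normalized to 50 nM 1α,25-dihydroxyvitamin D3 = 100%, DMSO = 0%; Hill fitting gives EC50 and maximal response.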

[17] = target: Retinoic acid receptor RXR-alpha (Homo sapiens) (UniProt P19793); assay: qHTS assay for small molecule agonists of retinoid X receptor alpha signaling (AID 588544); conditions: HEK293T RXRa-UAS-bla, beta-lactamase reporter, 18 h; activation: at 76.7 µM (top of the series) unless noted; further: potency means the concentration at half of the fitted maximal effect
UniProt P19793, sequence (P19793 whole entry, looked up): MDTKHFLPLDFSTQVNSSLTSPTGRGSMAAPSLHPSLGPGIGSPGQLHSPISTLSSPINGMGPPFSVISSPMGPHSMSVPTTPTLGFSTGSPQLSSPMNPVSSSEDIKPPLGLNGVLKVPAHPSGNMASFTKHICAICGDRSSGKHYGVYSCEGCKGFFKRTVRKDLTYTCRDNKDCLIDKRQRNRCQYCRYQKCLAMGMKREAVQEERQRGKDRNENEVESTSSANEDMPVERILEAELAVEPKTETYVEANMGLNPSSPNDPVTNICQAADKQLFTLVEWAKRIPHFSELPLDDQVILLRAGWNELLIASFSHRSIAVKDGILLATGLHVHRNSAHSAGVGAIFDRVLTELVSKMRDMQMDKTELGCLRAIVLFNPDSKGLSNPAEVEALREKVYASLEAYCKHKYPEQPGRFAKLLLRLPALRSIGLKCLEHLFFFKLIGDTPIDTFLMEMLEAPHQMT

[18] = target: Thyroid hormone receptor beta (Homo sapiens) (UniProt P10828); assay: qHTS assay for small molecule agonists of thyroid hormone receptor beta signaling (AID 588545); conditions: TR-UAS-bla GripTite HEK 293, beta-lactamase ratio, agonist mode, 18 h; activation: at 76.7 µM, percent of T3 response, DMSO as zero
UniProt P10828, sequence (P10828 whole entry, looked up): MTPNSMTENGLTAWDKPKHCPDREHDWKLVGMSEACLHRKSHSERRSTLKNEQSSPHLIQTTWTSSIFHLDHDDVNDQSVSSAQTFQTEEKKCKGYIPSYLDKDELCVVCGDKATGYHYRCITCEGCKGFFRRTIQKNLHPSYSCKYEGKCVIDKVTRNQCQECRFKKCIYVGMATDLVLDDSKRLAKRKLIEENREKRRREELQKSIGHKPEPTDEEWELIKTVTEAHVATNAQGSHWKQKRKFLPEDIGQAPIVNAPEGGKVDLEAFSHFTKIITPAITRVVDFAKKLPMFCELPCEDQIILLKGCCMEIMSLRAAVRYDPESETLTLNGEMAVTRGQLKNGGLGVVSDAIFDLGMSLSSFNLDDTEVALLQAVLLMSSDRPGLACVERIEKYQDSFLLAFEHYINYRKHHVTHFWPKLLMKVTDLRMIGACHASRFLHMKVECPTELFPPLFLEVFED
In short: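 HEK 293 TR-UAS-bla; agonist mode; 18 hrs, 37 C; CCF4, ex 405/em 460 and 530 nm; norm. T3 10 nM = 100%, DMSO = 0%; Hill fit → EC50, efficacy.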

[19] = target: Retinoic acid receptor RXR-alpha (Homo sapiens) (UniProt P19793); assay: qHTS assay for small molecule antagonists of retinoid X receptor alpha signaling (AID 588546; active means well fitted inhibition curve with a large enough effect in the signal ratio, with a control signal flat, not every such curve was filed as active; inconclusive means small, poorly fitted or top-dose-only effect, or effect the other way, or a change in a side signal; inactive means no such curve, though single readings can be large or run the other way; the % refers to the signal ratio; further: potency means the concentration at half of the fitted maximal effect); conditions: HEK293T RXRa-UAS-bla, beta-lactamase ratio, antagonist mode
In short: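 Beta-lactamase reporter inhibition, read as CCF4 fluorescence ratio (ex 405, em 460/530 nm) after 2 h at RT. HEK293T UAS-bla cells, 2500/well, were stimulated with 9-cis-RA at 500 or 100 nM final alongside test compound for 18 h at 37 C.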

[20] = target: Thyroid hormone receptor beta (Homo sapiens) (UniProt P10828); assay: qHTS assay for small molecule antagonists of thyroid hormone receptor beta signaling (AID 588547; active means well fitted inhibition curve with a large enough effect in the signal ratio, with a control signal flat, not every such curve was filed as active; inconclusive means small, poorly fitted or top-dose-only effect, or effect the other way, or a change in a side signal; the % refers to the signal ratio;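 further: cells stimulated with 0.4 nM T3 agonist during compound exposure; on the % scale 0 is the no-effect control and ±100 the full control effect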); conditions: TR-UAS-bla HEK293, beta-lactamase ratio, antagonist mode, 18 h
In short: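 Inhibition of T3-driven (0.4nM final) beta-lactamase reporter activity was measured over 0.59 nM to 92 uM compound after 18 h at 37 C. The cells were GripTite HEK293 TR-UAS-bla in charcoal/dextran-stripped serum, with CCF4 ratio read-out and IC50 from Hill fits.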

[21] = qHTS assay for small molecule agonists of the antioxidant response element (ARE) signaling pathway (AID 651741; active means well fitted activation curve with a large enough effect in the signal ratio; inconclusive means small, poorly fitted or top-dose-only effect, or effect the other way, or a change in a side signal; the % refers to the signal ratio; further: potency means the concentration at half of the fitted maximal effect); conditions: HepG2 ARE-bla reporter, beta-lactamase FRET ratio, 16 h; activation: at 96 µM (top of the series) unless noted
In short: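 Agonist activity is measured as ARE-driven beta-lactamase expression in a stable HepG2 reporter line, using 16 h compound treatment at 37 C and a FRET substrate fluorescence readout after 2 h.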

[22] = qHTS assay for small molecule disruptors of the mitochondrial membrane potential - 1 hr assay (AID 651754); conditions: ratio change, negative = depolarisation: at 92.2 µM (top of the series); further: potency means the concentration at half of the fitted maximal effect; nearly all actives have a fitted effect of over 35% in size
In short: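 In this qHTS format, a 1 hr compound treatment of HepG2 cells precedes Mito-MPS staining, and membrane potential is judged from aggregate (red) against monomer (green) fluorescence intensity.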

[23] = qHTS assay for small molecule disruptors of the mitochondrial membrane potential - 5 hr assay (AID 651755); conditions: JC-1-type ratio dye; ratio change, negative = disruption: at 92.2 µM (top of the series); further: potency means the concentration at half of the fitted maximal effect; nearly all actives have a fitted effect of over 40% in size
In short: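 Membrane-potential dye readout: red aggregate (540 ex/590 em) versus green monomer (490 ex/535 em) fluorescence after 30 min dye loading, following 5 hr compound exposure at 37C of overnight-plated HepG2 cells.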

[24] = target: Tumor necrosis factor (Homo sapiens) (UniProt P01375); assay: qHTS assay to identify small molecules that stimulate Tumor Necrosis Factor-alpha (TNF-alpha) secretion (AID 651757; active means well fitted curve in the direction sought with a large enough effect in the signal ratio; inconclusive means small, poorly fitted or top-dose-only effect, or a change in a side signal; inactive means no such curve, though single readings can be large or run the other way; the % refers to the signal ratio; further: 0% is about no effect); conditions: Human cells, HTRF 665/615 ratio; activation (TNF-alpha secretion): at 92.2 µM (top of the series)
UniProt P01375, sequence (P01375 whole entry, looked up): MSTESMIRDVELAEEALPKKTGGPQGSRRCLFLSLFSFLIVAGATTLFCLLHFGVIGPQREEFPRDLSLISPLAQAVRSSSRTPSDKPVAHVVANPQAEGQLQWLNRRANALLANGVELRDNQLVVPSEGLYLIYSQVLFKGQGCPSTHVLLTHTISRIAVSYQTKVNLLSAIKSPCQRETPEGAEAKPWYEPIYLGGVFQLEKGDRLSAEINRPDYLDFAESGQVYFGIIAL
In short: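 Using 3000 THP-1 cells per well, compounds and controls were applied for 17 hrs at 37 C. Detection followed with two labeled anti-TNF-alpha antibodies (cryptate donor, XL665 acceptor) for 3 hr at room temperature, measured by TR-FRET.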

[25] = qHTS assay to identify small molecules that stimulate interleukin-8 (IL-8) secretion (AID 651758; active means well fitted activation curve with a large enough effect in the signal ratio; inconclusive means small, poorly fitted or top-dose-only effect, or effect the other way, or a change in a side signal; the % refers to the signal ratio; further: potency means the concentration at half of the fitted maximal effect); conditions: HTRF ratio (665/615); activation: at 92.2 µM (top of the series)
In short: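 Secreted IL-8 measured homogeneously by TR-FRET (two labelled anti-IL-8 antibodies, 1-3 h at room temperature) after a 16 h, 37 C compound treatment of THP-1 cells at 2000 cells/well.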

[26] = qHTS assay for small molecule antagonists of the retinoid-related orphan receptor gamma (ROR-gamma) signaling pathway - cell viability counter screen (AID 720652; active means well fitted curve in the direction sought with a large enough effect in the repeat runs; inconclusive means weak or mixed curves; inactive means no such curve, though single readings can be large; an effect the other way counts as inactive or inconclusive;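 further: potency means the concentration at half of the fitted maximal effect; compound exposure lasted 16 hr before ATP read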); conditions: RORgamma reporter cell line viability counter screen; series mostly up to 92.2 µM
In short: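 ATP-based viability readout in the ROR-gamma reporter CHO cells after 16 hr compound exposure under doxycycline induction.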

[27] = qHTS assay for cell viability of HEK293 cells (AID 743288; active means well fitted curve in the direction sought with a large enough effect; inconclusive means small, poorly fitted or top-dose-only effect, or another doubt; inactive means no such curve, though single readings can be large; an effect the other way counts as inactive or inconclusive; further: potency means the concentration at half of the fitted maximal effect; nearly all actives have a fitted effect of over 50% in size); conditions: ATP luminescence (CellTiter-Glo), 18 h; max response: hits give low values
In short: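 Quantitative high-throughput screen: compounds were pinned onto parental HEK293 cells (2,000 per well) after a minimum 5 h settling at 37 C, incubated 18 h at 37 C, and intracellular ATP measured by luciferase luminescence.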
Tags describe the fitted curve by direction and shape or compound fluorescence and quenching.

C[C@@H]1CC2(OC(O)[C@]3(C)O[C@H]23)O[C@H]2C[C@@]3(C)[C@@H]4CC[C@H]5C(C)(C)C(O[C@@H]6OC[C@@H](O)[C@H](O)[C@H]6O)CC[C@@]56C[C@@]46CC[C@]3(C)[C@@H]12 (some centres not stated)
inactive: Potency [24]
active: Potency [2] 39.8 µM | Potency [27] 44.7 µM
inconclusive: Potency [1] 50.1 µM [cytotoxic, partial curve, poor fit] | Potency [3] 50.1 µM [cytotoxic, partial curve] | Potency [4] 79.4 µM [cytotoxic, single point] | Potency [5] 50.1 µM [cytotoxic, partial curve] | Potency [6] 50.1 µM [falling, partial curve, poor fit] | Potency [7] 39.8 µM [side channel, rising, single point] | activation [8] -24.6% | Potency [9] 44.7 µM [side channel, rising, single point] | Potency [10] 35.5 µM [side channel, rising, partial curve, poor fit] | activity change, negative = inhibition [11] 6.04% | Potency [12] 39.8 µM [fluorescent, side channel, partial curve] | Potency [13] 28.2 µM [side channel, rising, partial curve, poor fit] | activity, negative = inhibition [14] -20.5% | activity change, negative = inhibition [15] -22.9% | Potency [16] 7.94 µM [side channel, rising, full curve] | Potency [17] 12.6 µM [fluorescent, side channel, partial curve, poor fit] | activation [18] -20.1% | Potency [19] 11.2 µM [side channel, rising, partial curve, poor fit] | activity change % (negative = inhibition) [20] -37.2% | Potency [21] 33.5 µM [activator, single point] | Potency [22] 42.2 µM [inhibitor, partial curve] | Potency [23] 37.6 µM [inhibitor, partial curve] | Potency [25] 42.2 µM [inhibitor, partial curve] | Potency [26] 42.2 µM [cytotoxic, partial curve]
